Among the data in ChEMBL document CHEMBL6109158, “Discovery of Novel Bifunctional Agents as Potent Androgen Receptor Antagonists and Degraders for the Treatment of Enzalutamide-Resistant Prostate Cancer” (J Med Chem, 2025) are IC50 values, retold here.

As a reminder, the pIC50 is the negative decadic logarithm of the IC50, by convention in mol/L. A lower pIC50 goes with a high IC50.

Molecules are shown by their SMILES. pIC50: −log10 of the molar value.

Test [1] has as its system CWR22R. The test can be described thus: cells. Particulars: Homo sapiens, 22Rv1, […]. It is filed as functional, cell-based.
For test [2], the system named is LNCaP C4-2. In words: cells. Type of test: functional, cell-based. Particulars: Homo sapiens.
Test [3] can be described thus: cells. Conditions: Homo sapiens, Enzalutamide-resistant C4-2B. Type of test: functional, cell-based.
The test system of test [4] is LNCaP. In words: cells. It is filed as functional, cell-based. Particulars: Homo sapiens.
In test [5] the target is T1, Androgen receptor (Homo sapiens, UniProt P10275).
T1 sequence (P10275 whole entry): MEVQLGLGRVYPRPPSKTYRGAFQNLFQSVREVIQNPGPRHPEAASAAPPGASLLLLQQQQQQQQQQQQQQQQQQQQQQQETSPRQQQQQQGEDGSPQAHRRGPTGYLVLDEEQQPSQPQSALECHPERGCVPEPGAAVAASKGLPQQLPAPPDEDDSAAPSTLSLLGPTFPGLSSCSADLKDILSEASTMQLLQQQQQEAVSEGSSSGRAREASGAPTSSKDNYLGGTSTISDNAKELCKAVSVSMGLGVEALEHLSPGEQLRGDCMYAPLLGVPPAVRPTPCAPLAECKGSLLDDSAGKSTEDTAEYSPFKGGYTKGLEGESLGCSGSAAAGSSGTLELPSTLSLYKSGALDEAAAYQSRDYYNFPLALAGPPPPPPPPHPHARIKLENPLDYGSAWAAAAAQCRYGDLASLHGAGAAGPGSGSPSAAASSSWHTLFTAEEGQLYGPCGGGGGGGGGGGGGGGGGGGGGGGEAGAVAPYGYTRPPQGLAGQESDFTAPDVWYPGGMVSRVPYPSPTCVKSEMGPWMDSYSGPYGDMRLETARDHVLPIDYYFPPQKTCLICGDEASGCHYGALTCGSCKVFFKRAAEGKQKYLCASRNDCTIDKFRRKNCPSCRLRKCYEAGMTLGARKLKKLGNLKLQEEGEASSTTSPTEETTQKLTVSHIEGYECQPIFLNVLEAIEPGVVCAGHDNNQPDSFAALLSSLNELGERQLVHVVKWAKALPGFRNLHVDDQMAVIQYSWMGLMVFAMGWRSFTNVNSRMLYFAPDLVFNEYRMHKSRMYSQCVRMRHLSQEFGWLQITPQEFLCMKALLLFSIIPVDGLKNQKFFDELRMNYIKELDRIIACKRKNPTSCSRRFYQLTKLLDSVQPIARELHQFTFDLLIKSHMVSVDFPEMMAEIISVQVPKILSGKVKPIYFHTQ

Test [6] is described as follows: cells. It is filed as functional, cell-based. Particulars: Homo sapiens, Enzalutamide-resistant LNCaP.

On to `C[C@](O)(CN1CC2CCC(C1)N2c1ccc(C#N)cc1)C(=O)Nc1ccc(C#N)c(C(F)(F)F)c1`, for which the pIC50 is 5.63 in test [1], 5.83 in test [2], 5.20 in test [3] and 5.75 in test [4].

Regarding `C[C@](O)(CN1C2CCC1CN(c1ccc(C#N)cc1)C2)C(=O)Nc1ccc(C#N)c(C(F)(F)F)c1`, the negative-log IC50 (pIC50) in test [1] is 5.38.

As for `COc1c(C#N)ccc(NC(=O)[C@@](C)(O)CN2CC3CCC(C2)N3c2ccc(C#N)cc2)c1F`, the pIC50 in test [5] was 5.85.

`C[C@](O)(CN1CC2CCC(C1)N2c1ccc(C#N)cc1)C(=O)Nc1cnc(C#N)c(Cl)c1` showed a negative-log IC50 (pIC50) in test [5] of 6.63. Compared with the last compound, the pIC50 is 0.78 log units higher.

Regarding `COc1cc(NC(=O)[C@@](C)(O)CN2CC3CCC(C2)N3c2ccc(C#N)cc2)ccc1C#N`, the pIC50 in test [5] is 6.50.

As for `C[C@](O)(CN1CC2CCC(C1)N2c1cnc(C#N)nc1)C(=O)Nc1cnc(C#N)c(C(F)(F)F)c1`, in test [5], the pIC50 is 6.43. The pIC50 values of the last two compounds are within 0.2 log units of each other.

Regarding `CNC(=O)c1ccc(N2C(=S)N(c3ccc(C#N)c(C(F)(F)F)c3)C(=O)C2(C)C)cc1F` [ENZALUTAMIDE], the pIC50 is 5.94 in test [2], 4.77 in test [3], 6.05 in test [4] and 4.73 in test [6].
